Experimental data published in paper PMC10668032.
Some of the results follow. At the low end of the ranking the order means little.

The sequences below were run against SIX1-Q177R homeodomain (UniProt Q15475) (assay: universal protein binding microarray). Conditions: Universal all-10-mer PBM (8x60K, AMADID 030236), 300 nM GST-tagged protein, Alexa Fluor 488 anti-GST; buffer, salt, pH and temperature not stated; high values mean tight binding; most listed sequences are background and not binding sites; double strand, one strand shown.

| Sequence | binding signal |
| --- | --- |
| ATTTTTTA | -0.183 E-score |
| CGGAACTA | -0.0884 E-score |
| AGTTTGGC | -0.196 E-score |
| TCCAGTAA | -0.253 E-score |
| GCGTTCCA | -0.103 E-score |
| AGATCGAT | -0.143 E-score |
| CGAAACTC | -0.184 E-score |
| AACACTAA | 0.336 E-score |
| GAGGTGCA | 0.192 E-score |
| ACATCGTC | -0.25 E-score |
| ACTCAGTA | -0.0833 E-score |
| CACTTGCA | 0.173 E-score |
| AAAAGCTT | -0.202 E-score |
| ACTAGTAT | 0.0857 E-score |
| GACTCTCC | 0.0103 E-score |
| GAAATTGA | -0.103 E-score |
| ACCACTAA | 0.053 E-score |
| ATGGCACC | 0.149 E-score |
| CATTCGGG | 0.113 E-score |
| ACATCTCG | -0.0651 E-score |
| CGGTATTA | -0.0208 E-score |
| CCAACAAA | -0.0639 E-score |
| AGAAAGTG | 0.0949 E-score |
| AGCTGTAG | -0.16 E-score |
| CACCAGAA | 0.313 E-score |

| Sequence | binding signal |
| --- | --- |
| CGCGAACG | 0.0267 E-score |
| CAGACACG | 0.353 E-score |
| AGCTTGTA | -0.0252 E-score |
| CTGATAGC | -0.185 E-score |
| AGCCCGAA | -0.271 E-score |
| ACAGTTTC | -0.0664 E-score |
| ATAATTTA | -0.145 E-score |
| ACCTTTAC | 0.0796 E-score |
| ATGTCAAG | -0.184 E-score |
| ACGCCCTG | 0.085 E-score |
| AATTCACT | -0.0752 E-score |
| CCACTGAC | -0.138 E-score |
| AGCTACAG | -0.28 E-score |
| GCATGTCC | -0.251 E-score |
| ATCTTTCC | -0.146 E-score |
| CTGTAAAA | -0.079 E-score |
| CTACGTGC | -0.0719 E-score |
| ACCGCGGC | -0.0602 E-score |
| CTAAATTC | -0.164 E-score |
| AGCTGAGG | 0.00879 E-score |
| CCCTTTCC | -0.0811 E-score |
| CCTTTGTC | 0.0161 E-score |
| GTGAAGCA | -0.076 E-score |
| GTCAACAC | 0.38 E-score |
| AGGTACCA | -0.158 E-score |

| Sequence | binding signal |
| --- | --- |
| ACTAGTGG | 0.0778 E-score |
| CCAGATCC | -0.0193 E-score |
| AACGCAAC | 0.0521 E-score |
| GAGCCTAA | -0.000895 E-score |
| CGCGGGGA | 0.0642 E-score |
| AGCGCGAC | -0.114 E-score |
| CTGCAGAC | 0.059 E-score |
| CAGAAAGG | -0.0861 E-score |
| CTTGAAGC | -0.2 E-score |
| TACCGAGA | 0.0171 E-score |
| CTCGTAGC | 0.015 E-score |
| AGCTGGAT | -0.057 E-score |
| AATCTTAG | -0.119 E-score |
| AAATCCTA | 0.053 E-score |
| CGTCCCTA | -0.00657 E-score |
| CTACATTA | -0.0855 E-score |
| ATCTACCG | -0.0682 E-score |
| CTGCTCGC | -0.128 E-score |
| GCCACTCC | -0.029 E-score |
| CTACAAAA | -0.053 E-score |
| CGCACGTA | -0.0194 E-score |
| GACCCAGA | -0.0236 E-score |
| CCCGAGGG | 0.0544 E-score |
| AATATCCT | -0.0269 E-score |
| ACGAATGA | 0.0724 E-score |

| Sequence | binding signal |
| --- | --- |
| ATCAGCGA | -0.224 E-score |
| CAGCTACG | -0.00279 E-score |
| AGTCCTGG | -0.213 E-score |
| CCTTATAG | 0.109 E-score |
| GAGGTCGA | -0.0708 E-score |
| CACCACTC | 0.322 E-score |
| GGGGGCAC | -0.00685 E-score |
| ATGGAGTA | 0.239 E-score |
| CCAACGCC | 0.181 E-score |
| CATCAAAA | -0.204 E-score |
| CCCATACC | 0.0741 E-score |
| CGAATATC | -0.0113 E-score |
| ACCCCCAA | 0.312 E-score |
| AGGATATG | -0.0806 E-score |
| AAGAGACA | 0.0387 E-score |
| AACCACAG | -0.0966 E-score |
| ACAAGAAT | -0.26 E-score |
| CCTTCGCG | -0.0565 E-score |
| AGCAAGCC | -0.262 E-score |
| ATTTCTCC | -0.316 E-score |
| CGGTCCGC | -0.152 E-score |
| CAAAGCGA | -0.0491 E-score |
| ATGCTTGA | -0.204 E-score |
| ACGTGAAA | 0.00026 E-score |
| CGACCTAG | -0.0247 E-score |

| Sequence | binding signal |
| --- | --- |
| GAACTACC | -0.241 E-score |
| GTGAATTA | -0.146 E-score |
| ACAATAAA | -0.111 E-score |
| ATGACAAC | 0.0141 E-score |
| CCTCACAG | -0.00639 E-score |
| AGATTCGA | -0.0889 E-score |
| CGAGGCTC | -0.0118 E-score |
| ATGGTCGG | 0.0694 E-score |
| ATGCCGCA | -0.0732 E-score |
| CTCTGAAC | -0.184 E-score |
| CACTATAA | 0.253 E-score |
| GGCCACGA | -0.125 E-score |
| GGATCGAC | 0.0853 E-score |
| ACGCGTAT | -0.0625 E-score |
| GTGGTGTA | 0.481 E-score |
| CGAATGAA | -0.14 E-score |
| ATTCTAGG | 0.107 E-score |
| ATCCTGAA | -0.158 E-score |
| CTTTGAGA | -0.0999 E-score |
| CCACTTCA | 0.0622 E-score |
| AATAGACC | -0.0992 E-score |
| ACTGACTA | -0.082 E-score |
| ACACCCTC | 0.474 E-score |
| ACCGTCAC | 0.103 E-score |
| CAGAACCG | 0.00298 E-score |

| Sequence | binding signal |
| --- | --- |
| CCGCAAGG | 0.15 E-score |
| CGGAGAAA | -0.168 E-score |
| CTACTGGA | -0.0195 E-score |
| GAGATTGC | -0.0973 E-score |
| TAGAGTAA | 0.199 E-score |
| CAATAACG | -0.151 E-score |
| CTCCAGGA | 0.0126 E-score |
| GTGACCGA | -0.102 E-score |
| CAGGTCAA | -0.212 E-score |
| CACCTTGA | 0.177 E-score |
| CCTTATAA | 0.179 E-score |
| AGCGCCAA | -0.184 E-score |
| ATACACAT | 0.0906 E-score |
| GACAGTCC | -0.207 E-score |
| CACCCGTG | 0.37 E-score |
| GCAGTTAC | 0.0766 E-score |
| AGCTTGCC | -0.222 E-score |
| CCGACGAA | -0.127 E-score |
| GCTACTTA | -0.157 E-score |
| AAAGTGTG | 0.184 E-score |
| AGCTAATG | -0.149 E-score |
| ATATCGGA | -0.0394 E-score |
| ACCCCCCC | 0.31 E-score |
| AGTTCCAT | -0.192 E-score |
| GCACAGAC | -0.0626 E-score |

| Sequence | binding signal |
| --- | --- |
| AGCAACCC | -0.173 E-score |
| CATCGCTC | -0.17 E-score |
| ACACTTAA | 0.316 E-score |
| ATCTCAGA | -0.00349 E-score |
| ATGCACAC | 0.289 E-score |
| ACTACCAC | 0.0315 E-score |
| AACCCAAT | -0.124 E-score |
| GACCATTA | -0.268 E-score |
| ATGCGGAC | 0.0711 E-score |
| AATACGCC | 0.085 E-score |
| CTTTGAGC | -0.169 E-score |
| ATTGCGAG | -0.117 E-score |
| GGGTACGA | 0.0965 E-score |
| GGGTTTGA | 0.076 E-score |
| AGGGTGAA | -0.0425 E-score |
| ATACCATA | 0.132 E-score |
| AGTTCGAC | -0.132 E-score |
| GAGTCTCA | -0.0058 E-score |
| AGCGATAA | -0.101 E-score |
| GGGCCAGA | 0.0166 E-score |
| CCGGCTGC | 0.0305 E-score |
| ATGACATG | -0.134 E-score |
